Experimental findings from a collection of fitness landscapes (doi:10.1126/science.1257360) are described below.

Some of the results follow.

Sequences and labels used below:
B1: PhoQ; a variant is named by its letters at X, in order, P23837 (parent)
chain: MKKLLRLFFPLSLRVRFLLATAAVVLVLSLAYGMVALIGYSVSFDKTTFRLLRGESNLFYTLAKWENNKLHVELPENIDKQSPTMTLIYDENGQLLWAQRDVPWLMKMIQPDWLKSNGFHEIEADVNDTSLLLSGDHSIQQQLQEVREDDDDAEMTHSVAVNVYPATSRMPKLTIVVVDTIPVELKSSYMVWSWFIYVLSANLLLVIPLLWVAAWWSLRPIEALAKEVRELEEHNRELLNPATTRELTSLVRNLNRLLKSERERYDKYRTTLTDLTHSLKTPLXXLQXXLRSLRSEKMSVSDAEPVMLEQISRISQQIGYYLHRASMRGGTLLSRELHPVAPLLDNLTSALNKVYQRKGVNISLDISPEISFVGEQNDFVEVMGNVLDNACKYCLEFVEISARQTDEHLYIVVEDDGPGIPLSKREVIFDRGQRVDTLRPGQGVGLAVAREITEQYEGKIVAGESMLGGARMEVIFGRQHSAPKDE

This assay covers variants of B1. In words: enrichment ratio after two sorts for PhoP signalling (ratio (wild type AVST 3.29)); higher = more functional. Conditions: with PhoP (E. coli).
Consider QCFR, for which the enrichment ratio was ≤ 0.25.

Turning to SGAN, the enrichment ratio turned out to be 7.18. Consider SNSW, for which the enrichment ratio was ≤ 0.25. VWVK: the enrichment ratio is ≤ 0.25.

For SPCV, the enrichment ratio is ≤ 0.25. For HWIL, the enrichment ratio was ≤ 0.25. MTTC: the enrichment ratio was ≤ 0.25. Take GTFF: the enrichment ratio was ≤ 0.25. For NHVD, the enrichment ratio was ≤ 0.25. The same measure for RALA: ≤ 0.25. As for YWST, the enrichment ratio was ≤ 0.25. The figure for NNAI is 4.06; for HRKM it is ≤ 0.25.

Take HTFA: the enrichment ratio was ≤ 0.25. As for HFRM, the enrichment ratio is ≤ 0.25. In the case of NISK, the enrichment ratio was ≤ 0.25.

SVGM: the enrichment ratio was 9.35.

In the case of TIIF, the enrichment ratio is ≤ 0.25.

In the case of NYWK, the enrichment ratio is ≤ 0.25. On to EDCD, for which the enrichment ratio is ≤ 0.25.

Turning to HVNP, the enrichment ratio is ≤ 0.25. Take VLHQ: the enrichment ratio is ≤ 0.25. Turning to CRCF, the enrichment ratio was ≤ 0.25. The same measure for DCGV: ≤ 0.25; for FWYF: ≤ 0.25.

With KMLQ, the enrichment ratio was ≤ 0.25. For the variant WKMT, the enrichment ratio is ≤ 0.25. The same measure for LYAS: ≤ 0.25.

DRFD: the enrichment ratio was ≤ 0.25. With QETI, the enrichment ratio is 1.44. With KNFD, the enrichment ratio is ≤ 0.25.

As for TQPN, the enrichment ratio is ≤ 0.25. On to SFLA, for which the enrichment ratio was 8.02. Regarding IMFM, the enrichment ratio was ≤ 0.25.

With ILKQ, the enrichment ratio was ≤ 0.25. ASTS: the enrichment ratio was 9.85.

With ISIE, the enrichment ratio is ≤ 0.25.

On to VFWG, for which the enrichment ratio was ≤ 0.25. YIWF: the enrichment ratio is ≤ 0.25. The figure for CFAF is ≤ 0.25; for DMPC it is ≤ 0.25. Turning to VFED, the enrichment ratio was ≤ 0.25. For the variant NWAI, the enrichment ratio was ≤ 0.25.

Regarding AEAG, the enrichment ratio is 7.71. Consider GLWD, for which the enrichment ratio was ≤ 0.25. HQQG: the enrichment ratio was ≤ 0.25. Consider DYGD, for which the enrichment ratio is ≤ 0.25. With PKSK, the enrichment ratio is ≤ 0.25. For TEQP, the enrichment ratio is ≤ 0.25. On to FCLN, for which the enrichment ratio came out at 3.94.

For the variant VCAS, the enrichment ratio was ≤ 0.25. The figure for SNEL is ≤ 0.25. The figure for SHCF is 7.35; for MRNC it is ≤ 0.25; for VIMV it is ≤ 0.25. For the variant YWLY, the enrichment ratio is ≤ 0.25.

Regarding EFSH, the enrichment ratio is ≤ 0.25. The figure for VEKY is ≤ 0.25. On to HWSC, for which the enrichment ratio was ≤ 0.25. Consider MEAM, for which the enrichment ratio was determined as 9.82.

For the variant VMER, the enrichment ratio is ≤ 0.25. On to PTLP, for which the enrichment ratio was ≤ 0.25. For the variant KLRT, the enrichment ratio was ≤ 0.25.

In the case of YITK, the enrichment ratio is ≤ 0.25. The same measure for EYYK: ≤ 0.25.

As for SRRC, the enrichment ratio was ≤ 0.25.

For the variant VLHA, the enrichment ratio is ≤ 0.25.

In the case of RLWN, the enrichment ratio is ≤ 0.25. On to AFPV, for which the enrichment ratio is ≤ 0.25. With GYCL, the enrichment ratio was ≤ 0.25. The same measure for RIYY: ≤ 0.25. The figure for GKAW is ≤ 0.25; for NPCF it is ≤ 0.25; for HDWM it is ≤ 0.25. As to VYNI, the enrichment ratio was ≤ 0.25. Take QGYK: the enrichment ratio came out at 0.706.

Regarding YAPC, the enrichment ratio was ≤ 0.25. The figure for TCFG is ≤ 0.25; for GAHP it is ≤ 0.25; for DIEC it is ≤ 0.25. The same measure for LRCA: ≤ 0.25. On to IPTV, for which the enrichment ratio is ≤ 0.25. Regarding GGCR, the enrichment ratio was ≤ 0.25.

Take YRQM: the enrichment ratio is ≤ 0.25. The same measure for KGYM: ≤ 0.25; for TREC: ≤ 0.25; for ENLK: ≤ 0.25. For FQPA, the enrichment ratio was ≤ 0.25. The same measure for TKGA: ≤ 0.25. The same measure for TQIQ: 9.56; for WLFM: ≤ 0.25; for TQIL: 7.66. Turning to KDYA, the enrichment ratio was ≤ 0.25. For the variant KQRD, the enrichment ratio is ≤ 0.25.

As to TEDD, the enrichment ratio is ≤ 0.25. With QIYN, the enrichment ratio worked out at 20.5. On to YAIE, for which the enrichment ratio was ≤ 0.25. Turning to ANVL, the enrichment ratio was found to be 13.9. Consider HTLC, for which the enrichment ratio is ≤ 0.25.

Regarding MHPG, the enrichment ratio was ≤ 0.25.

For SFKG, the enrichment ratio was ≤ 0.25. As for RQIQ, the enrichment ratio is ≤ 0.25.

As for LQSF, the enrichment ratio was ≤ 0.25. On to PNFQ, for which the enrichment ratio was ≤ 0.25. As to PAQT, the enrichment ratio was ≤ 0.25. As for IRNH, the enrichment ratio was ≤ 0.25.

IEAG: the enrichment ratio is ≤ 0.25. GLCA: the enrichment ratio is ≤ 0.25. For WYCL, the enrichment ratio was ≤ 0.25. Regarding LETD, the enrichment ratio was ≤ 0.25. Consider KIMD, for which the enrichment ratio is ≤ 0.25. Take INKY: the enrichment ratio is ≤ 0.25.

On to ILST, for which the enrichment ratio was ≤ 0.25. On to LDAF, for which the enrichment ratio was ≤ 0.25.

Consider KYHN, for which the enrichment ratio was ≤ 0.25. On to QRPY, for which the enrichment ratio was ≤ 0.25. Consider ELDD, for which the enrichment ratio was ≤ 0.25. The figure for KLGT is ≤ 0.25; for IATP it is ≤ 0.25. In the case of KVPA, the enrichment ratio was ≤ 0.25. For the variant WSGT, the enrichment ratio was ≤ 0.25. The figure for LMQP is ≤ 0.25. The same measure for CLNF: ≤ 0.25; for LPKC: ≤ 0.25; for DILL: ≤ 0.25. Regarding HWWL, the enrichment ratio is ≤ 0.25. For RNRI, the enrichment ratio was ≤ 0.25. Consider DWVC, for which the enrichment ratio is ≤ 0.25. For FGLS, the enrichment ratio stood at 8.38. Take IFDW: the enrichment ratio was ≤ 0.25. On to VLPF, for which the enrichment ratio is ≤ 0.25. Consider QAYW, for which the enrichment ratio was 2.38. AMPG: the enrichment ratio is ≤ 0.25. TRRG: the enrichment ratio was ≤ 0.25. For the variant WCDK, the enrichment ratio was ≤ 0.25. For SKNK, the enrichment ratio was ≤ 0.25. KRFT: the enrichment ratio is ≤ 0.25.

For HKHK, the enrichment ratio is ≤ 0.25. Turning to ALVH, the enrichment ratio was 0.867. Regarding WHKL, the enrichment ratio is ≤ 0.25. For the variant KVAS, the enrichment ratio was ≤ 0.25. The figure for PASE is ≤ 0.25; for WLSF it is ≤ 0.25; for ARDR it is ≤ 0.25. YEFL: the enrichment ratio is ≤ 0.25. The figure for KKYD is ≤ 0.25; for YQLA it is ≤ 0.25; for MPCD it is ≤ 0.25. WIMR: the enrichment ratio is ≤ 0.25. As to FQAY, the enrichment ratio is ≤ 0.25. On to MMAC, for which the enrichment ratio was 3.29. With KDTF, the enrichment ratio was ≤ 0.25. The same measure for YAEH: ≤ 0.25.
